These results are taken from the GPR68 mutational scans of Howard et al. (2025).

Scores with a large standard error are left out. Not listed are two conditions whose scores span a narrow range. In variant names, del marks residues removed and ins residues inserted between the two positions. For some assays here: The concentration of ogerin is not given here.

B1: GPR68, Q15743 (parent)
chain: MGNITADNSSMSCTIDHTIHQTLAPVVYVTVLVVGFPANCLSLYFGYLQIKARNELGVYLCNLTVADLFYICSLPFWLQYVLQHDNWSHGDLSCQVCGILLYENIYISVGFLCCISVDRYLAVAHPFRFHQFRTLKAAVGVSVVIWAKELLTSIYFLMHEEVIEDENQHRVCFEHYPIQAWQRAINYYRFLVGFLFPICLLLASYQGILRAVRRSHGTQKSRKDQIQRLVLSTVVIFLACFLPYHVLLLVRSVWEASCDFAKGVFNAYHFSLLLTSFNCVADPVLYCFVSETTHRDLARLRGACLAFLTCSRTGRAREAYPLGAPEASGKSGAQGEEPELLTKLHPAFQTPNSPGSGGFPTGRLA

Data set [1] covers variants of B1. In words: cAMP reporter score (Enrich2 score, wild type = 0); higher = more signal; HEK293T, FACS bins.
Variants of B1 are the subject of data set [2]. The data set is described as follows: surface expression score (Enrich2 score, wild type = 0); higher = more signal; HEK293T, FACS bins.

As to Q131_F132insG, the cAMP reporter score was -1.9 in data set [1] (pH 5.5); -1.22 in data set [1] (pH 6); -1.38 in data set [1] (pH 6, modulator: ogerin); -1.1 in data set [1] (pH 6.5, modulator: ogerin). For the same variant, in data set [2], the surface expression score was -2.22.

D118_R119del: the cAMP reporter score in data set [1] (pH 5.5) is -1.16; in data set [1] (pH 6.5, modulator: ogerin) it was -0.926. Besides, the surface expression score in data set [2] was -2.84.

Consider F132_T134del, for which the cAMP reporter score was -1.73 in data set [1] (pH 5.5); -0.642 in data set [1] (pH 6); -1.6 in data set [1] (pH 6, modulator: ogerin); -1.09 in data set [1] (pH 6.5, modulator: ogerin). Also, the surface expression score in data set [2] is -2.69.

For L112_C113insGS, the cAMP reporter score in data set [1] (pH 5.5) is -1.38; in data set [1] (pH 6), -1.09; in data set [1] (pH 6, modulator: ogerin), -0.754; in data set [1] (pH 6.5, modulator: ogerin), -1.63. The surface expression score in data set [2] is -2.45.

Take F127del: the cAMP reporter score is -0.617 in data set [1] (pH 5.5); -1.07 in data set [1] (pH 6); -1.16 in data set [1] (pH 6, modulator: ogerin); -0.632 in data set [1] (pH 6.5, modulator: ogerin). In addition, the surface expression score in data set [2] is -0.316.

Consider N104_I105del, for which the cAMP reporter score in data set [1] (pH 5.5) was -2.06; in data set [1] (pH 6), -0.656; in data set [1] (pH 6, modulator: ogerin), -1.44; in data set [1] (pH 6.5, modulator: ogerin) it was -1.72. Moreover, in data set [2], the surface expression score was -2.39.

On to F127_F129del, for which the cAMP reporter score in data set [1] (pH 5.5) was -1.33; in data set [1] (pH 6) it was -0.423; in data set [1] (pH 6, modulator: ogerin), -1.14; in data set [1] (pH 6.5, modulator: ogerin), -0.993. For the same variant, the surface expression score in data set [2] was -3.73.

Turning to V117_R119del, the cAMP reporter score in data set [1] (pH 5.5) is -0.737; in data set [1] (pH 6), -0.644; in data set [1] (pH 6, modulator: ogerin), -0.966; in data set [1] (pH 6.5, modulator: ogerin), -1.44. For the same variant, in data set [2], the surface expression score is -2.45.

In the case of A124_H125insGS, the cAMP reporter score was -1.58 in data set [1] (pH 5.5); -0.999 in data set [1] (pH 6); -1.63 in data set [1] (pH 6, modulator: ogerin); -1.42 in data set [1] (pH 6.5, modulator: ogerin). Also, in data set [2], the surface expression score was -2.05.

In the case of R128_F129insGS, the cAMP reporter score in data set [1] (pH 5.5) is -1.26; in data set [1] (pH 6.5, modulator: ogerin), -1.88. The surface expression score in data set [2] was -3.54.

As to Y106_I107insG, the cAMP reporter score in data set [1] (pH 5.5) is -1.16; in data set [1] (pH 6), -0.696; in data set [1] (pH 6, modulator: ogerin) it was -0.663. Besides, the surface expression score in data set [2] is -2.83.

As to F127_R128insG, the cAMP reporter score in data set [1] (pH 5.5) was -0.077; in data set [1] (pH 6, modulator: ogerin), -0.012; in data set [1] (pH 6.5, modulator: ogerin), -0.978. In data set [2], the surface expression score was -1.29.

As for V109_G110insGS, the cAMP reporter score was -0.489 in data set [1] (pH 5.5) and -0.679 in data set [1] (pH 6.5, modulator: ogerin). Also, the surface expression score in data set [2] was -1.18.

With D118_Y120del, the cAMP reporter score in data set [1] (pH 5.5) was -1.48; in data set [1] (pH 6), -0.609; in data set [1] (pH 6, modulator: ogerin), -1.34; in data set [1] (pH 6.5, modulator: ogerin), -0.99. For the same variant, the surface expression score in data set [2] was -2.3.

For P126_F127insG, the cAMP reporter score in data set [1] (pH 5.5) was -1.13; in data set [1] (pH 6), -0.184; in data set [1] (pH 6, modulator: ogerin) it was -1.29; in data set [1] (pH 6.5, modulator: ogerin), -1.31. For the same variant, the surface expression score in data set [2] was -2.93.

Consider Q131_R133del, for which the cAMP reporter score in data set [1] (pH 5.5) was -0.795; in data set [1] (pH 6), -0.447; in data set [1] (pH 6, modulator: ogerin), -1.3; in data set [1] (pH 6.5, modulator: ogerin) it was -0.671. In addition, the surface expression score in data set [2] was -1.99.

In the case of A122_A124del, the cAMP reporter score in data set [1] (pH 5.5) was -1.2; in data set [1] (pH 6) it was -0.345; in data set [1] (pH 6, modulator: ogerin) it was -0.845; in data set [1] (pH 6.5, modulator: ogerin), -0.597. Further, the surface expression score in data set [2] was -2.41.

With V109_G110del, the cAMP reporter score was -0.438 in data set [1] (pH 5.5); 0.114 in data set [1] (pH 6); -1.64 in data set [1] (pH 6, modulator: ogerin); -0.407 in data set [1] (pH 6.5, modulator: ogerin). Further, the surface expression score in data set [2] is -2.69.

R128del: the cAMP reporter score was -1.69 in data set [1] (pH 5.5); -0.719 in data set [1] (pH 6); -0.881 in data set [1] (pH 6, modulator: ogerin); -0.685 in data set [1] (pH 6.5, modulator: ogerin). For the same variant, the surface expression score in data set [2] is -2.17.

Regarding H125V, the cAMP reporter score in data set [1] (pH 5.5) was -2.59; in data set [1] (pH 6.5, modulator: ogerin) it was -0.333. The surface expression score in data set [2] is -2.76.

As to H125S, the cAMP reporter score in data set [1] (pH 5.5) was -0.776; in data set [1] (pH 6), -0.798; in data set [1] (pH 6.5, modulator: ogerin), -0.602.

In the case of H125F, the cAMP reporter score in data set [1] (pH 5.5) is -0.206; in data set [1] (pH 6, modulator: ogerin), -0.622; in data set [1] (pH 6.5, modulator: ogerin), -0.494. The surface expression score in data set [2] was -0.431.

For the variant H125Q, the cAMP reporter score in data set [1] (pH 5.5) was 1.14; in data set [1] (pH 6) it was -0.638; in data set [1] (pH 6, modulator: ogerin), 0.576; in data set [1] (pH 6.5, modulator: ogerin) it was 0.188. Besides, the surface expression score in data set [2] was -0.927.

Regarding H125C, the cAMP reporter score in data set [1] (pH 5.5) is 1.14; in data set [1] (pH 6), 0.094; in data set [1] (pH 6, modulator: ogerin), -0.941; in data set [1] (pH 6.5, modulator: ogerin), -0.941. Further, the surface expression score in data set [2] is -1.5.

Turning to H125T, the cAMP reporter score was -1.66 in data set [1] (pH 5.5); -1.19 in data set [1] (pH 6); -1.03 in data set [1] (pH 6, modulator: ogerin); -0.634 in data set [1] (pH 6.5, modulator: ogerin). Moreover, the surface expression score in data set [2] was -2.14.

Regarding H125L, the cAMP reporter score was -1.07 in data set [1] (pH 5.5); -1.12 in data set [1] (pH 6); -1.36 in data set [1] (pH 6, modulator: ogerin); -0.966 in data set [1] (pH 6.5, modulator: ogerin). In addition, the surface expression score in data set [2] was -2.03.

Regarding H125K, the cAMP reporter score in data set [1] (pH 5.5) was 1.05; in data set [1] (pH 6), -0.02; in data set [1] (pH 6, modulator: ogerin), -0.335; in data set [1] (pH 6.5, modulator: ogerin), -0.897. In data set [2], the surface expression score is -1.5.

In the case of H125G, the cAMP reporter score in data set [1] (pH 5.5) was -2.85; in data set [1] (pH 6) it was -1.26; in data set [1] (pH 6, modulator: ogerin), -2.08; in data set [1] (pH 6.5, modulator: ogerin), -0.649.

Regarding H125A, the cAMP reporter score was -1 in data set [1] (pH 5.5); -0.802 in data set [1] (pH 6); -1.2 in data set [1] (pH 6, modulator: ogerin).

H125I: the cAMP reporter score in data set [1] (pH 5.5) was -0.418; in data set [1] (pH 6, modulator: ogerin), -0.765; in data set [1] (pH 6.5, modulator: ogerin), -1.22. Moreover, the surface expression score in data set [2] is -1.12.

For the variant H125D, the cAMP reporter score in data set [1] (pH 5.5) was -0.4; in data set [1] (pH 6, modulator: ogerin), -0.74; in data set [1] (pH 6.5, modulator: ogerin), -0.367.

Turning to H125N, the cAMP reporter score was -0.471 in data set [1] (pH 5.5); -0.243 in data set [1] (pH 6); -0.61 in data set [1] (pH 6, modulator: ogerin); -0.402 in data set [1] (pH 6.5, modulator: ogerin). The surface expression score in data set [2] was -0.598.

For the variant H125R, the cAMP reporter score in data set [1] (pH 5.5) was -0.752; in data set [1] (pH 6), -0.307; in data set [1] (pH 6, modulator: ogerin), -1.27; in data set [1] (pH 6.5, modulator: ogerin), -0.673. For the same variant, the surface expression score in data set [2] is -0.74.
